No constants are given. Whether binding was seen depends on the method and setting. Binding seen in cells or lysates may run through a third protein. Some entries that bind do so weakly or less than the wild type. For some assays here: Sequences can lack the tags named with a protein.

Some targets named below: FLAG-tagged WT-D3R (UniProt P35462); FLAG-tagged C147K-D3R (UniProt P35462); FLAG-tagged K149C-D2R (UniProt P14416); FLAG-tagged WT-D2R (UniProt P14416).
Common to all, as to experiment: co-IP; FLAG-tagged bait immunoprecipitated with anti-FLAG M2 agarose beads overnight at 4 °C from RIPA lysates of transfected HEK-293 cells; blots for GFP or HA; cells treated with dopamine (10 μM), quinpirole (100 nM) or isoproterenol (10 μM) for 5 min and washed/rechallenged, or with 10 ng/mL EGF (5 or 20 min, or washed/rechallenged)
For another experiment, the target named is T1, FLAG-tagged D4R (UniProt P21917).
T1 sequence: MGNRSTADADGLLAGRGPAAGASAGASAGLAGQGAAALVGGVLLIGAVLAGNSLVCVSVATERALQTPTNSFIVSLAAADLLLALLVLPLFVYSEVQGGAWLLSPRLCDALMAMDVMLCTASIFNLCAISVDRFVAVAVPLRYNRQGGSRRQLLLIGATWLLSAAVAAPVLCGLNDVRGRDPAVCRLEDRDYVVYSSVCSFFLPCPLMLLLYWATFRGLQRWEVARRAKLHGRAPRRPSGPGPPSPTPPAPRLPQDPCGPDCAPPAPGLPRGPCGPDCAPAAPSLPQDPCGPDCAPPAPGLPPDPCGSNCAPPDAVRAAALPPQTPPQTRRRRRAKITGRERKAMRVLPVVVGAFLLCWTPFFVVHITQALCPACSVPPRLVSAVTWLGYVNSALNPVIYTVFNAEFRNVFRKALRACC

Turning to “EGFR-GFP (from UniProt P00533 25-1210) (receptor)”, the binding entry with FLAG-tagged WT-D3R is on record as “binds”; with FLAG-tagged C147K-D3R, “no binding”; in the experiment with FLAG-tagged K149C-D2R it was “binds”; with FLAG-tagged D4R, “no binding”; with FLAG-tagged WT-D2R it was “no binding”.

For the origin of these results see paper PMC11514929.
